Experimental data published in the RNAGym collection of RNA variant scans (doi:10.7554/elife.90254).
The source gives no read counts; variants with many changes may rest on few reads.

B1: OR4K15 (parent)
chain: GUUAACGGUCAUAGGCCAUGGAAACUAGGAGCACCAUUUCGCUGCCAGUGAAGAAAUGAACAAAGAAAAUCUGGGCCAGGCAGGCAUCAAAAGAAAUAGUCUUGCGCUCAACCAGAAAGUCUGUAAUCAUUUUAAGGGUA

Variants of: B1
Test: self-cleavage, relative activity (ratio to wild type); higher = more cleavage; in vitro, sequencing; the parent is a self-cleaving ribozyme

For U9C U87C A116G, which self-cleavage is on record?
Its self-cleavage is 0.55.

For C32U A66U U102C A118G, which self-cleavage is on record?
The self-cleavage was 1.21.

For U2C A23G U43A A96G, which self-cleavage is on record?
The self-cleavage was 1.45.

Which self-cleavage does the source give for A18C A59G A62G A64G here?
The self-cleavage was 1.09.

With A68G U70C U87C as the variant, how does the self-cleavage read?
The self-cleavage was 0.39.

Which self-cleavage does the source give for A63U A68G U122C here?
The self-cleavage was 0.99.

With A36G A60G A111G as the variant, how does the self-cleavage read?
The self-cleavage was 0.02.

With U43C U102C A140G as the variant, how does the self-cleavage read?
The self-cleavage was 1.09.

For U9C A33G U72C A110G A116G, which self-cleavage is on record?
Its self-cleavage is 0.06.

For A24G A30G U72C, which self-cleavage is on record?
Its self-cleavage is 0.15.

For G29A A86U A116G, which self-cleavage is on record?
Its self-cleavage is 0.56.

Which self-cleavage does the source give for U49C U57A A114G here?
Its self-cleavage is 0.13.

For U2C U39C A54G A94U G99A, which self-cleavage is on record?
The self-cleavage was 0.7.

For U2A U39C A54G A68G U70A A82G A94G, which self-cleavage is on record?
The self-cleavage was 0.11.

For A27G A96G A111G C128A U130A G136A, which self-cleavage is on record?
Its self-cleavage is 0.

Which self-cleavage does the source give for U37A A62G U122C here?
The self-cleavage was 1.79.

For A11G A56G A68G U70A A116G, which self-cleavage is on record?
Its self-cleavage is 0.6.

With C10A A52G A62G A94G A98G U127C as the variant, how does the self-cleavage read?
Its self-cleavage is 0.88.

With A54G A62G G106C as the variant, how does the self-cleavage read?
The self-cleavage was 0.02.

Which self-cleavage does the source give for G1A G44A A110G here?
The self-cleavage was 0.24.

With U38C U72A U120C as the variant, how does the self-cleavage read?
Its self-cleavage is 0.16.

For A22G U132C A135G, which self-cleavage is on record?
Its self-cleavage is 0.59.

Which self-cleavage does the source give for A23G A68G U87C A117G A118G here?
Its self-cleavage is 0.33.

With A52U A69G A82C A89G U127A as the variant, how does the self-cleavage read?
The self-cleavage was 0.2.

With A23G A33G C46U U108C A126G as the variant, how does the self-cleavage read?
The self-cleavage was 0.

Which self-cleavage does the source give for A24G U26C A27G U39A A67G here?
Its self-cleavage is 0.94.

Which self-cleavage does the source give for A23G A96G U124G here?
Its self-cleavage is 0.41.

With U9C G74U U120C as the variant, how does the self-cleavage read?
Its self-cleavage is 0.09.

Which self-cleavage does the source give for A22U A33G A59G G79A here?
The self-cleavage was 0.39.

Which self-cleavage does the source give for A5G U70C U87C A91G A92G U122A U132C here?
The self-cleavage was 0.21.

With U37C A64U A66U G83U A140G as the variant, how does the self-cleavage read?
Its self-cleavage is 0.51.

Which self-cleavage does the source give for U38C A110U C128U here?
The self-cleavage was 0.53.

For A60G A82G U131C U132G, which self-cleavage is on record?
Its self-cleavage is 0.07.

With A66G A95G U130C as the variant, how does the self-cleavage read?
Its self-cleavage is 2.09.

Which self-cleavage does the source give for U39A U102A U127C here?
The self-cleavage was 0.68.

For A24C A68G A118G, which self-cleavage is on record?
Its self-cleavage is 0.98.

For U72C U108C A129G A135U, which self-cleavage is on record?
The self-cleavage was 0.

With U2C C16G C71A A86U A116U as the variant, how does the self-cleavage read?
The self-cleavage was 0.15.

For U70C A94G U120C, which self-cleavage is on record?
Its self-cleavage is 0.16.

Which self-cleavage does the source give for A11U A22G U131C here?
Its self-cleavage is 1.18.

Which self-cleavage does the source give for U37C A51U A134U here?
The self-cleavage was 1.39.

For A18G U37C A59U, which self-cleavage is on record?
The self-cleavage was 2.47.

Which self-cleavage does the source give for A18U U132C A140G here?
The self-cleavage was 0.87.

With U9A U26C U49A A59G A60G G75A U122C as the variant, how does the self-cleavage read?
Its self-cleavage is 0.12.

With U39G U43C A92G as the variant, how does the self-cleavage read?
The self-cleavage was 1.68.

Which self-cleavage does the source give for U43C A47G A52G A94G A117G A129G here?
Its self-cleavage is 0.43.

For U49C A110G A140G, which self-cleavage is on record?
The self-cleavage was 0.08.

With A47U U57C U108C as the variant, how does the self-cleavage read?
Its self-cleavage is 0.01.

With A33G A47G A69U as the variant, how does the self-cleavage read?
Its self-cleavage is 0.17.

Which self-cleavage does the source give for U38C A47G A63G A66G A96G G104A A110G here?
Its self-cleavage is 0.02.

Which self-cleavage does the source give for C6G A36U A67G A86G A96G here?
Its self-cleavage is 0.92.

For A5C A69G A94G U130C, which self-cleavage is on record?
Its self-cleavage is 0.85.

For U2C G8A U43G, which self-cleavage is on record?
The self-cleavage was 1.63.

Which self-cleavage does the source give for A24U A66G U122C here?
The self-cleavage was 1.16.

Which self-cleavage does the source give for U2A U9C U19C A52G here?
The self-cleavage was 1.25.

With G7U U19C A56G U122C U131A as the variant, how does the self-cleavage read?
Its self-cleavage is 0.73.

Which self-cleavage does the source give for A24U C77U G84A here?
The self-cleavage was 1.84.

For U19C A51G A111G, which self-cleavage is on record?
The self-cleavage was 0.05.

Which self-cleavage does the source give for A18U A24G A27U A117G U122C here?
The self-cleavage was 1.35.

For A36G A91G A95G, which self-cleavage is on record?
Its self-cleavage is 1.79.

With U49C A52G U100G A117G as the variant, how does the self-cleavage read?
Its self-cleavage is 1.51.

Which self-cleavage does the source give for A23U U49A A55U here?
The self-cleavage was 0.44.

With G7A A23G A33U C61U A69G G74C A82G as the variant, how does the self-cleavage read?
Its self-cleavage is 0.22.

Which self-cleavage does the source give for A86U A96U U102C A118G here?
Its self-cleavage is 1.58.

Which self-cleavage does the source give for A86G A91G A129U A140U here?
The self-cleavage was 0.07.

Which self-cleavage does the source give for A59G A62G A111G here?
Its self-cleavage is 0.01.

With A33U A89C U120C as the variant, how does the self-cleavage read?
Its self-cleavage is 0.66.

With U9C U38C A51G as the variant, how does the self-cleavage read?
Its self-cleavage is 1.98.

Which self-cleavage does the source give for U2C U49A A91C A94G A135G here?
Its self-cleavage is 1.23.

For A47G A66G A82G A140G, which self-cleavage is on record?
Its self-cleavage is 0.8.

Which self-cleavage does the source give for C32U A110G A114G here?
Its self-cleavage is 0.07.

Which self-cleavage does the source give for A4G A5G A59G U120C here?
The self-cleavage was 0.52.

For G28U A64G A96G U130A, which self-cleavage is on record?
Its self-cleavage is 1.82.

With U9C U100A U108C as the variant, how does the self-cleavage read?
The self-cleavage was 0.02.

For U39C A56G A64G U120C, which self-cleavage is on record?
The self-cleavage was 1.8.

Which self-cleavage does the source give for A23C A62G A94G here?
Its self-cleavage is 2.22.

With U38C A55G A67G U124C U132C as the variant, how does the self-cleavage read?
The self-cleavage was 1.02.

For A92G U102C A118U, which self-cleavage is on record?
The self-cleavage was 2.17.

With U38C A64G A67G A82U U87C U120C as the variant, how does the self-cleavage read?
Its self-cleavage is 0.11.

Which self-cleavage does the source give for U2C C35U A36G A68G A90G here?
The self-cleavage was 0.76.

With A4G A66U U87A as the variant, how does the self-cleavage read?
Its self-cleavage is 1.4.

Which self-cleavage does the source give for U9C A22G U102C here?
Its self-cleavage is 0.71.

With U49C A68U A95G U122A G138U as the variant, how does the self-cleavage read?
The self-cleavage was 2.6.
